Data as given in the RNAGym collection of RNA variant scans (doi:10.1093/nar/gkz1192).
The source gives no read counts; variants with many changes may rest on few reads.

B1: CPEB3 Ribozyme (parent)
chain: UAACAGGGGGCCACAGCAGAAGCGUUCACGUCGCAGCCCCUGUCAGAUUCUGGUGAAUCUGCGAAUUCUGCUGUAUAUCUC

Variants of: B1
Test: self-cleavage, relative activity (ratio to wild type); higher = more cleavage; in vitro, sequencing
In short: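 After error-prone PCR and barcoding, CPEB3 ribozyme mutant libraries were transcribed with T7 RNA polymerase at 37°C for 5 hours, then given 15 min with DNase I before an EDTA stop, and they cleaved during both steps. Reverse transcription with template switching preceded Illumina sequencing. Relative activity divides a variant's cleaved/total read fraction by the unmutated ribozyme's. At least 5 reads were required per variant, and three batches were averaged.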

Variant | self-cleavage
A18G U60A G63A U69A U76C | 0.3
A18G U60A U66C | 0.29
A18G U60A U72C | 0.19
A18G U60C C62U | 0.29
A18G U66C U67C | 0.27
A18G U66C U69C U78C | 0.44
A18G U67A C71G | 0.3
A18G U67A U80C | 0.25
A18G U67C U80C | 0.16
A18G U69C U74C | 1.36
A18G U69C U78C | 1.15
A18G U74C U80C | 0.91
A18G U76C U78A | 0.53
A18G U76C U80G | 1.11
A18G U78A U80A | 1.04
A18U A20C C32G | 0.06
A18U A20G A21G U69A U78C | 0.34
A18U A20G A28G C32A | 0.14
A18U A20G A28G U49C U74A | 0.04
A18U A20G A45G A56G A77U U78C | 0.09
A18U A20G G30A U41C U43A A57G U67C | 0.07
A18U A20G G42U | 0.39
A18U A20G G53A | 0.39
A18U A20G U25C U41C | 0.04

Variant | self-cleavage
A18U A20G U25C U58A | 0.2
A18U A20G U25C U66A U67A U72C A75U | 0.07
A18U A20G U26A U51A | 0.19
A18U A20G U31G U60C | 0.19
A18U A20G U41C A77U | 0.12
A18U A20G U41C G53A | 0.24
A18U A20G U41C U72C U76A | 0.45
A18U A20G U60C | 0.32
A18U A20G U60C U76C U78C | 0.46
A18U A20G U67A | 0.31
A18U A20G U69A | 0.64
A18U A20U G46U C62G | 0.15
A18U A20U U25A U43A U72C | 0.07
A18U A20U U26C A28G U60C | 0.04
A18U A20U U49C U60C U80A | 0.1
A18U A20U U54C | 0.18
A18U A21G A28G A45U | 0.05
A18U A21G A35G U54C U74C U78C | 0.81
A18U A21G A35U C40G U43C | 0.05
A18U A21G A56G U67C U72A | 0.05
A18U A21G C68A | 0.06
A18U A21G G30A | 0.05
A18U A21G U25C U41C G46A U60C | 0.01
A18U A21G U31C U41A U49G G53U U60G | 0.15

Variant | self-cleavage
A18U A21G U41A A45G | 0.29
A18U A21G U41C U54C U60A A75U | 0.03
A18U A21G U43A | 0.22
A18U A21G U48C | 0.1
A18U A21G U51C U60C | 0.2
A18U A21G U54A A65G | 0.16
A18U A21G U60A | 0.08
A18U A21G U67A | 0.19
A18U A21G U67C | 0.16
A18U A21G U74C | 0.25
A18U A21U U25C | 0.1
A18U A21U U31A U51A C71U | 0.16
A18U A21U U67A | 0.2
A18U A28C A64U | 0.14
A18U A28G A35G A45C A65G U80C | 0.21
A18U A28G A35G U76A | 0.64
A18U A28G A45G C68U | 0.19
A18U A28G A57G U60C | 0.13
A18U A28G A64U U72A U80C | 0.15
A18U A28G A65G U66C | 0.13
A18U A28G C38U U67C U80C | 0.09
A18U A28G G33A U51C U60A | 0.19
A18U A28G G73A | 0.42
A18U A28G U31A C39U G53U | 0.07

Variant | self-cleavage
A18U A28G U43C A45U A64G U72G | 0.05
A18U A28G U58C | 0.07
A18U A28U A35U U69A | 0.39
A18U A28U A45G U60C U69A U80C | 0.97
A18U A28U A56U U80A | 0.2
A18U A28U G30A U48C | 0.12
A18U A28U G36A A64U A65G | 0.06
A18U A28U U31C A47G G55A U72C | 0.09
A18U A28U U43C A47G U67A U72C A75U | 0.16
A18U A28U U51C U54C U66C | 0.25
A18U A28U U69C A75G | 0.21
A18U A28U U76G | 0.43
A18U A35G A56G U60A U78C | 0.37
A18U A35G A56G U76A | 0.61
A18U A35G A56U A75G | 0.28
A18U A35G A64G A65G U74G | 0.19
A18U A35G C40A U41C | 0.3
A18U A35G U41C A45U U69A | 1.24
A18U A35G U60C | 0.24
A18U A35G U69A | 1.2
A18U A35G U78C | 0.25
A18U A35U U41C A56U A64U U67A | 0.1
A18U A35U U41C U66C | 0.15
A18U A35U U43C U49C | 0.05

Variant | self-cleavage
A18U A35U U54C A64U | 0.14
A18U A45G A47G U80C | 0.22
A18U A45G A57G | 0.19
A18U A45G A57G A64G | 0.33
A18U A45G A57G U66A | 0.13
A18U A45G U48C U66C | 0.09
A18U A45G U51A | 0.27
A18U A45G U66A U72A U76C U80C | 0.11
A18U A45G U78A | 0.46
A18U A45U A64G U78C | 0.1
A18U A45U U51C U72G | 0.1
A18U A45U U54C G63A U69C | 0.2
A18U A45U U72C U80C | 0.35
A18U A47G A64G | 0.15
A18U A47G C50A A64C C81U | 0.14
A18U A47G U54C C71A U78A | 0.16
A18U A47G U60C C62U | 0.09
A18U A47G U80C | 0.63
A18U A47U U49C A77C | 0.09
A18U A47U U72A | 0.38
A18U A56G A57G | 0.13
A18U A56G A57G A75U | 0.19
A18U A56G C79A | 0.37
A18U A56G U72C | 0.21

Variant | self-cleavage
A18U A56G U74A U78C | 0.59
A18U A56G U76C | 0.18
A18U A56U A64G A65G | 0.18
A18U A57G A64G | 0.2
A18U A57G G61U U78A | 0.15
A18U A57U A75U | 0.27
A18U A57U U66C | 0.11
A18U A64U U69G A75U U80A | 0.36
A18U A64U U72A | 0.18
A18U A65G U78C | 0.28
A18U C23A A35G U49A U58A U72A | 0.05
A18U C23A G33A U60A | 0.18
A18U C23U A45C U48C G70U U76A U78C | 0.05
A18U C23U G30A U31C U54C G55U | 0.05
A18U C23U G61A | 0.17
A18U C23U U26C U43A | 0.35
A18U C27A A35G U41C U72A | 0.05
A18U C27A A45U U66C | 0.29
A18U C27A G63A A77G | 0.06
A18U C27A U54A A57G U58C U69A | 0.1
A18U C27U A77G | 0.2
A18U C29A U31C A56G U66C U72C | 0.14
A18U C29G U69C | 0.17
A18U C29U A35U U41A A47G A57G G61A | 0.05

Variant | self-cleavage
A18U C29U G52A U58C U72A U76C | 0.1
A18U C32G U69A | 0.07
A18U C32U U54C U72C | 0.07
A18U C32U U67A | 0.31
A18U C34A C40U U54C | 0.15
A18U C34A C40U U54C U80C | 0.07
A18U C34G U48C | 0.2
A18U C34U U41C G61A U69G C79U | 0.08
A18U C37A C38A U76A U80C | 0.06
A18U C37A U43G U60A | 0.05
A18U C38A U51A | 0.19
A18U C38G U60A C81U | 0.21
A18U C38U C81G | 0.32
A18U C38U U67C C71U | 0.14
A18U C39G A45U U54A U58C | 0.15
A18U C39U A47G G53U U54C | 0.15
A18U C40G A45G U78A | 0.04
A18U C40G A57G U60C C62G A65U | 0.09
A18U C40G U60C C62G | 0.09
A18U C62G A64G U78C | 0.18
A18U G19A A35C U43C U58C | 0.11
A18U G19A C68A | 0.13
A18U G19A U31C A45C A56G U76A | 0.12
